Measurements as given in ChEMBL document CHEMBL4888484, “Replenishing the malaria drug discovery pipeline: Screening and hit evaluation of the MMV Hit Generation Library 1 (HGL1) against asexual blood stage Plasmodium falciparum ,using a nano luciferase reporter read-out” (2022).
Out of some 150,000 compounds screened, about 540 (0.36%) showed an effect of 50% or more. The list shows a part of the results.

system: Plasmodium falciparum; assay: Primary screen in NF54 nanoGlo assay, in single point, at 2uM, 72h; a lower Z score goes with more inhibition; assay type: functional, Erythrocyte; details: timepoint 72 hour

| Compound | % Inhibition | Z score |
| --- | --- | --- |
| C[C@H](Nc1nc(-c2ccccn2)nc2c1CCC2)c1ccncc1 | 8% | -1.55 |
| Cc1cc(C)cc(N2CC[C@H](NC(=O)C3CCCCC3)C2=O)c1 | -4% | 0.66 |
| Cc1nc(NCCc2cc[nH]n2)cc([C@H]2C[C@@H](O)C2)n1 | -18% | 2.15 |
| CC(C)c1nc(C(=O)N2CCn3nc(C#N)cc3C2)cs1 | -5% | 0.74 |
| C[C@H]1c2ccccc2CN1C(=O)NCc1ncn(C)n1 | 1% | -0.15 |
| Cc1ccc(CC(=O)N2CC[C@@]3(CC(=O)c4ccccc4O3)C2)cn1 | 3% | -0.43 |
| CCCc1cc(C(=O)N(Cc2ccccc2)[C@H]2C[C@H]3CC[C@@H](C2)N3C)no1 | -11% | 1.17 |
| C[C@H](NS(=O)(=O)c1ccccc1C(F)(F)F)C(=O)NCc1ncccc1O | 0% | 0.02 |
| COc1ccc(N2C(=O)CN(C(=O)COc3ccccc3OC)CC23CCCC3)cc1 | -6% | 1.18 |
| O=C(O)CCC1CCCN(C(=O)C2CCCO2)C1 (stereo not drawn) | -6% | 0.72 |
| O=c1ccc(C2CC2)nn1Cc1c(Cl)oc2ccccc12 | -3% | 0.44 |
| CC(C)N(C)C(=O)NCC1CCN(CC#N)CC1 | -13% | 1.69 |
| O=C(NC[C@H]1CCN1C1CCCCC1)NC1CCC(C(F)F)CC1 (stereo partly drawn) | 6% | -0.81 |
| C[C@@H](C(=O)NCC(=O)Nc1cn[nH]c1)c1ccc(Cl)s1 | -11% | 1.07 |
| C[C@@]1(C(=O)Nc2cccc(CN3CCNC(=O)C3)c2)CCc2ccccc21 | 27% | -3.58 |
| Cc1ncnc(OCC2CCN(C(=O)CCC(F)(F)F)CC2)c1C | -10% | 1.13 |
| Cc1cccc(CNC(=O)[C@@H]2CCN(c3ccccc3Cc3ccccc3)C2=O)c1 | -4% | 0.44 |
| NC1(c2nc(-c3nccs3)cs2)CCCC1 | -7% | 0.63 |
| c1cn(Cc2noc(C3CCC3)n2)c(-c2cc3n(n2)CCCNC3)n1 | -4% | 0.56 |
| CC(C)c1nnc(NC(=O)[C@@]2(C)CC2(Cl)Cl)s1 | 4% | -0.38 |
| C[C@H]1CCCCN1C(=O)CN1CCN(c2noc(C(C)(C)C)n2)CC1 | -1% | 0.18 |

| Compound | % Inhibition | Z score |
| --- | --- | --- |
| CN(C[C@H]1COc2ccccc2O1)C1CCOCC1 | 7% | -0.95 |
| Cc1c(-c2nnc(C(=O)NCCc3ccccc3)o2)oc2ccccc12 | 3% | -0.37 |
| Cc1ccc(NCC(F)(F)C(F)F)cc1 | -13% | 1.75 |
| CC(c1ccc(Cl)cc1)C(C)N(C)S(=O)(=O)N(C)CCC#N (stereo not drawn) | -12% | 1.17 |
| O=C(c1ccc(O)c(Cl)c1)N1C[C@@H]2CC[C@H]1CN(C1CCOCC1)C2 | -9% | 1.77 |
| O=C(N[C@H]1CCO[C@@H]1c1cc[nH]n1)c1csc(C2CCCCC2)c1 | -12% | 2.29 |
| COc1cc(C(=O)NCc2cc(F)cc3c(C)c(C)[nH]c23)ccn1 | -3% | 0.32 |
| CN(CC(=O)NCc1cccnc1)C(=O)c1cc2n(n1)CCCN(Cc1ccc(F)cc1)C2=O | -4% | 0.36 |
| CCC(CC)(CO)CN(C)C(=O)c1cc(F)cc(Cl)c1 | -7% | 1.45 |
| Cc1cccc(C)c1OCCC(=O)N1CCCNC(=O)[C@@H]1C | 1% | -0.11 |
| CC(C)Oc1cccc(C(=O)NC2(c3ncon3)CCOCC2)n1 | -9% | 1.41 |
| CC(C)O/C(=N/C(=O)c1ccc(C(F)(F)F)cc1)N(CCc1ccccc1)Cc1ccccc1 | -7% | 0.92 |
| COC(=O)C1CC(O)CN1Cc1nccn1Cc1ccccc1 (stereo not drawn) | -11% | 1.35 |
| Cc1nc(-c2scc3c2OCCO3)n(-c2ccccn2)n1 | -13% | 1.75 |
| CN(C)c1ccccc1-c1cncc(C(N)=O)c1 | -6% | 0.8 |
| Cc1ccc(C)c(NC(=O)COC(=O)CCC(=O)Nc2cccc(C(=O)OCC(C)C)c2)c1 | -6% | 0.71 |
| CC(C)N1C[C@@H](C(=O)Nc2ccc3c(c2)OCCO3)CC1=O | -9% | 1.31 |
| COc1ccc(C(=O)N2CCOC[C@H](Oc3ccc(C(F)(F)F)cn3)C2)cc1 | 16% | -1.91 |
| CC(NCC(C)N1CCN(C)CC1)c1nc2ccc(Cl)cc2n1C (stereo not drawn) | 9% | -1.45 |
| O=C(N[C@H]1CC[C@H](O)CC1)c1cncnc1C1CC1 | -4% | 0.5 |
| COc1cc(OC)c(CN(C)C[C@H]2CC(=O)N(C(C)(C)C)C2)cc1Cl | 14% | -1.79 |

| Compound | % Inhibition | Z score |
| --- | --- | --- |
| COc1ccc(CN2C[C@H]3CN(C)C[C@H]3C2)cc1OCc1ccccc1F | 8% | -1.25 |
| COc1ccc(-c2cc3c(N4CCN(c5cc(Cl)ccc5C)CC4)nccn3n2)cc1OC | -13% | 1.99 |
| CC(C)N(Cc1nccn1C)C(=O)CCc1nnc(CCc2c[nH]c3ccccc23)o1 | -5% | 0.99 |
| CN(CC1CCOCC1)S(=O)(=O)c1ccccc1 | -10% | 1.44 |
| C[C@@H](CN(C)Cc1ccc(C2CCCCC2)s1)N1CCOCC1 | -2% | 0.37 |
| COc1ccc(C(=O)N2CCC3(CC2)OC[C@@H](C(=O)NC(C)C)N3C(=O)c2ccccc2C)cc1OC | 5% | -0.57 |
| CN(C)[C@@H]1C[C@@H](CO)N(Cc2ccc3ccccc3n2)C1 | 4% | -0.61 |
| Cc1nc2c(n1[C@H]1CCN(C(=O)CCCOc3cccnc3)C1)CCCC2 | 5% | -0.63 |
| Cc1cnn([C@H]2[C@@H]3OC[C@@H](O3)[C@@H](NCc3cnn(C)c3)[C@@H]2O)c1 | -9% | 1.18 |
| O=C(NCc1cccnc1-c1ccncc1)c1ccc(Cl)c(Cl)c1 | -8% | 1.4 |
| Cn1ncc(N2CC[C@H](C(=O)NCCc3ccccc3)C2)cc1=O | -14% | 1.99 |
| COc1cc(OC)c(NC(=O)C2CCN(S(=O)(=O)c3cc4c(cc3C)NC(=O)CO4)CC2)cc1Cl | 2% | -0.24 |
| O=C(NC1CCCCCC1CO)C1(O)CCCC1 (stereo not drawn) | -11% | 1.22 |
| CC(C)c1ccc(C(=O)NC[C@@H]2COc3ccccc3C2)c(=O)n1C | -12% | 1.64 |
| COc1cc(OC)cc(C(=O)N/C(=N/c2ccccc2)NCc2cccnc2)c1 | -25% | 2.32 |
| Cc1ccc[n+](CC2OCc3ccccc3CO2)c1 | 5% | -0.68 |
| CCc1c(C)nc(C)nc1NCC[C@H]1CCCOC1 | 1% | -0.27 |
| C=CCNS(=O)(=O)c1ccc(Br)c(C)c1 | -13% | 1.63 |
| Cc1nc(C#N)c(NC[C@@H](c2ccsc2)N(C)C)o1 | -3% | 0.38 |
| c1ncn(CC2CCN(c3nc(C4CCCC4)ns3)CC2)n1 | 1% | -0.13 |
| CCOc1cccc(CNC(=O)[C@@H]2CCCCC(=O)N2Cc2cccc(OC)c2)c1 | 2% | -0.36 |

| Compound | % Inhibition | Z score |
| --- | --- | --- |
| C#CCOC[C@@H](O)CN(CCC)Cc1ccc(OC)cc1 | -6% | 0.79 |
| COc1ccc(Oc2c(CN(CC3CC3)C(=O)c3cccc(F)c3)c(-c3ccccc3)nn2C)cc1 | 8% | -0.7 |
| Cc1ccncc1N1CCN(c2nccn3cnnc23)CC1 | -1% | 0.16 |
| CNc1ccnc(N2CCC[C@]3(CCC(=O)N(C(C)C)C3)C2)n1 | -14% | 1.7 |
| CC(C)NC[C@H](O)Cn1c(-c2ccccc2)ccc1-c1ccccc1 | 8% | -1.24 |
| CC(=O)Nc1ccc2[nH]c(C)c([C@H](Nc3cc(C)ccn3)c3ccccn3)c2c1 | -3% | 0.53 |
| COc1cc(CN2CCc3ccccc3[C@@H]2CO)cc2c1OCCO2 | -10% | 1.14 |
| O=c1nc(O)c2nsnc2n1CCO | 4% | -0.45 |
| O=C(c1noc2ccc(S(=O)(=O)NC3CCCCC3)cc12)N1CCOCC1 | 0% | 0.03 |
| O=S(=O)(c1cc(Cl)ccc1Cl)N1CN(C2CCCC2)c2nc3ccccc3nc21 | -13% | 1.39 |
| Nc1cncc(-c2ccc(NC3CCCC3)nn2)c1 | 4% | -0.6 |
| CCOc1ccc(S(=O)(=O)n2c(=O)n(S(=O)(=O)c3ccc(OCC)cc3)c3ccccc32)cc1 | -3% | 0.34 |
| Cc1ccc2c(C(=O)N(C)CCCN3CCCC3)c[nH]c2c1 | 1% | -0.17 |
| CC1CCCN(C(=O)CN2CCNCC2=O)C1C (stereo not drawn) | -5% | 0.66 |
| Cc1nc(C)c(C)c(N2Cc3cn[nH]c3C(C)(C)C2)n1 | -17% | 1.81 |
| OCCC[C@@H]1CN(c2nc(-c3ccccc3)no2)CC[C@@H]1N1CCOCC1 | -5% | 0.78 |
| CCc1ccccc1NC(=O)CN1C(=O)C(C)(C)c2cc(C)ccc21 | -4% | 0.63 |
| CC(C)(C)n1nc(-c2c[nH]c3ccccc23)nc1[C@@H]1CCC[C@H](N)C1 | 15% | -1.91 |
| O=C(c1cc(Cl)c[nH]1)N1CCCCCC1CC(O)c1ccco1 (stereo not drawn) | -6% | 0.9 |
| NC(=O)N1CCCN(C(=O)CNC(=O)c2cccc(F)c2)CC1 | -9% | 0.73 |
| Cc1ccc(NC(=O)C(Cc2ccccc2)C(=O)Nc2ccc(C)c(C)c2)cc1C | 1% | -0.11 |
